Screen size: about 420,000 compounds; about 64,000 (15%) were called active. This list was built around the results that the source calls inconclusive (neither active nor inactive); the mix of calls is not that of the screen. Calls come from the whole dose curve; as a rule, active = well fitted inhibition curve with a large enough effect; inconclusive = small, poorly fitted or top-dose-only effect; inactive = flat fitted curve, though single readings scatter. Potencies of inconclusive entries are left out as doubtful fits.
Test: qHTS for Inhibitors of human tyrosyl-DNA phosphodiesterase 1 (TDP1): qHTS in cells in absence of CPT; note: nearly all actives have a fitted effect of over 55% in size
Conditions: DT40 Tdp1-/- hTDP1 cells, no CPT, ATP luminescence, 48 h; activity change, negative = growth inhibition: at 46.2 µM (top of the series)
Outline: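 Readout: luminescence from CellTiter-Glo after 30 min in the dark at RT. Cells: DT40 Tdp1-/- with stable hTDP1, 400/well. Exposure: compounds alone, ≥48 hr, 37 °C.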
% is set by controls: 0 for no effect and ±100 for the full control effect; potency is the fitted concentration of half-maximal effect; tags give direction and shape of the fitted curve.

Row | Structure (SMILES) | Potency | activity change, negative = growth inhibition
1 | CCC1Sc2ccc(S(=O)(=O)CCC(=O)NCc3ccc(C)o3)cc2NC1=O (stereo not drawn) | inconclusive [inhibitor, partial curve] | 
2 | CCCCCn1c(=O)c(Cc2ccccc2)c(O)c2ccccc21 | inconclusive [inhibitor, single point] | 
3 | Cc1ccc(CNC(=O)CN2C(=O)CSc3ccc(S(=O)(=O)N4CCCC4)cc32)cc1 | inconclusive [inhibitor, single point] | 
4 | COC(=O)c1cccc(NC(=S)Nc2cccc(Cl)c2C)c1 | inconclusive [inhibitor, single point] | 
5 | Cc1cc(C)cc(-n2ncc3c2CCCC3NC(=O)c2ccccc2N2CCOCC2)c1 (stereo not drawn) | active: 16.4 µM | 
6 | CCCCn1nc(C(=O)NCC(c2cccs2)N2CCOCC2)c2ccccc2c1=O (stereo not drawn) | active: 20.6 µM | 
7 | NC(=O)c1ccc(NS(=O)(=O)c2ccc3ccccc3c2)cc1 | inactive | 
8 | O=P(Cc1cc(Br)cc(Br)c1OCCO)(c1ccccc1)c1ccccc1 | inconclusive [inhibitor, partial curve] | 
9 | CCOc1ccc(NC(=O)N2CCC(C(=O)c3ccc(F)cc3)CC2)cc1 | inconclusive [inhibitor, partial curve] | 
10 | O=C(NC(=S)Nc1ccc(Cl)cn1)C12CC3CC(CC(C3)C1)C2 | inconclusive [inhibitor, single point] | 
11 | CC(C)(C)c1ccc(-c2n[nH]c(=S)n2CC2CCCO2)cc1 (stereo not drawn) | active: 16.4 µM | 
12 | O=C(/C=C/c1ccco1)NCC1COc2ccccc2O1 (stereo not drawn) | inconclusive [inhibitor, single point] | 
13 | c1ccc(-n2nnnc2-c2cccc3ccccc23)cc1 | active: 4.61 µM | 
14 | COc1cc(/C=C(\NC(=O)c2cc(OC)c(OC)c(OC)c2)C(=O)NC(C(=O)O)c2ccccc2)cc(OC)c1OC (stereo not drawn) | inactive | 
15 | CCOC(=O)Cc1c(-c2cccc(Cl)c2)nc2c3ccccc3ccn12 | active: 20.6 µM | 
16 | CCCc1cc2c(cc1NC(=O)c1ccco1)OCO2 | inactive | 
17 | O=C(Cn1cnc2cc([N+](=O)[O-])ccc2c1=O)NCc1ccc(Cl)cc1 | inconclusive [inhibitor, single point] | 
18 | Cc1ccc(Cl)c(OCC(=O)NCC(c2cccs2)N2CCOCC2)c1 (stereo not drawn) | inconclusive [inhibitor, partial curve, poor fit] | 
19 | COC1=NC(=C(c2ccccc2)c2ccccc2)OC1=O | inactive | 
20 | CCC(=O)c1coc2ccc(O)cc12 | inconclusive [inhibitor, single point] | 
21 | CCC/C(=N\NC(=O)c1csc(C)c1C)c1cccs1 | inconclusive [inhibitor, partial curve, poor fit] | 
22 | Cc1ccc(Nc2ccc(S(=O)(=O)N3CCOCC3)cc2[N+](=O)[O-])cc1C | inconclusive [inhibitor, partial curve] | 
23 | OCC1OC(O)CC(O)C1O (stereo not drawn) | inactive | 
24 | Cc1cccc(N2C(=S)N=C(Nc3c(C)cccc3C)C23CCOC(C)(C)C3)c1 (stereo not drawn) | inconclusive [inhibitor, partial curve] | 

Row | Structure (SMILES) | Potency | activity change, negative = growth inhibition
25 | CCOc1ccc(CSc2nc(C)cc(COC)c2C#N)cc1OCC | inconclusive [inhibitor, single point] | 
26 | COc1cc(CNCc2cc(OC)ccc2OC)cc(OC)c1 | inactive | 
27 | O=C(COc1ccccc1)NCC(c1ccco1)N1CCN(c2ccc(F)cc2)CC1 (stereo not drawn) | inconclusive [inhibitor, single point] | 
28 | COc1cc(CN2CCCC(C(=O)c3ccc(C(C)(C)C)cc3)C2)cc(OC)c1O (stereo not drawn) | inconclusive [inhibitor, single point] | 
29 | CCOC(=O)c1cc(-c2ccc(OC)cc2)n(CCC(=O)Nc2cccc(C(C)=O)c2)c1C | active: 14.6 µM | 
30 | O=C(CCn1cncn1)NCC1Cc2cc(-c3ccsc3)cc(Cl)c2O1 (stereo not drawn) | inactive | 
31 | O=C(O)C1CC(Br)C(Br)CC1C(=O)O (stereo not drawn) | inactive | 
32 | COCCn1c(-c2ccc(C#N)cc2)nc2c1c(=O)[nH]c(=O)n2Cc1ccccc1 | inconclusive [inhibitor, single point] | 
33 | CC(C(=O)Nc1nc2ccccc2s1)n1cc([N+](=O)[O-])cn1 (stereo not drawn) | inactive | 
34 | Cc1ccc(CN2C(=O)C(C)Nc3ncnc(N4CCOCC4)c32)cc1 (stereo not drawn) |  | inconclusive: 1.77% [inhibitor]
35 | Fc1ccc(-n2cc(CNCCc3cccnc3)c(-c3ccccc3Cl)n2)cc1 | active: 23.1 µM | 
36 | c1ccc(COc2cccc(-c3cc4nc(NCCc5ccncc5)ccn4n3)c2)cc1 | active: 13 µM | 
37 | NC(=O)COC(=O)c1ccccc1OCC(=O)Nc1ccc(Br)cc1 | inconclusive [inhibitor, single point] | 
38 | CC(=O)c1ccc(OCC(=O)c2cc(C)n(-c3ccc4c(c3)OCO4)c2C)cc1 | active: 10.3 µM | 
39 | Cc1cc(C)n(CC(O)COc2ccc(Cl)cc2Cl)n1 (stereo not drawn) | active: 20.6 µM | 
40 | COc1cccc(OC)c1C(=O)Nc1cccc(NC(=O)c2cccs2)c1 | inactive | 
41 | COc1ccc(-c2noc(CN(C(=O)Cc3ccc(C)cc3)C(C)C)n2)cc1 | inconclusive [inhibitor, single point] | 
42 | COCCCNC(=O)c1sc2nc(C)c(C(=O)Nc3ccc(C)cc3C)c(-c3ccc(Br)cc3)c2c1N | inconclusive [inhibitor, single point] | 
43 | CCC(C)NC(=O)CSc1nnc(-c2ccc(C)cc2)c(-c2ccc(C)cc2)n1 (stereo not drawn) | inconclusive [inhibitor, single point] | 
44 | Cc1ccc(CSCCC(=O)N2CCN(c3cc(C)ccc3C)CC2)cc1 | active: 13 µM | 
45 | CCN(c1ccc(C)c(C)c1)S(=O)(=O)c1ccc2c(c1)CCN2C(=O)CCC(=O)O | inactive | 
46 | CC(NC(=O)c1ccc(Br)o1)c1ccc(-n2ccnc2)cc1 (stereo not drawn) | inconclusive [inhibitor, single point] | 
47 | COc1ccc(CCNC(=O)c2ccc(-c3ccc([N+](=O)[O-])cc3Cl)o2)cc1OC | active: 8.2 µM | 
48 | O=C(/C=C/c1ccccc1[N+](=O)[O-])NCCN1C(=O)S/C(=C\c2ccc(F)cc2)C1=O | inactive | 
